# Measurements reported in PubChem BioAssay AID1458 (National Center for Advancing Translational Sciences (NCATS), 2008).
# Values joined by “and” are separate entries in the source; they are usually repeats but may differ in a detail not shown here. Equal entries are not always repeated. In all, about 210,000 compounds went through this assay and about 5,900 (2.8%) were called active. The inconclusive results got no clear call from the source; some entries with a clear call stand among them for comparison. The call rests on the fitted dose curve; in most records, active means well fitted activation curve with a large enough effect; inconclusive means small, poorly fitted or top-dose-only effect; inactive means no such curve, though single readings can be large or run the other way. A potency beside an inconclusive call is a rough fit, not a confirmed value.
# Test: qHTS Assay for Enhancers of SMN2 Splice Variant Expression; further: nearly all actives have a fitted effect of over 55% in size; on activity change, positive = activation: % of control where 0% means no effect
# Details: HEK293 SMN2-luciferase splicing reporter, luminescence, 30-36 h; activity change, positive = activation: at 46.1 µM (top of the series)
# Summary of the method: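 HEK293 cells carry an SMN2 […]–luciferase reporter in which exon 7 inclusion puts luciferase in frame. Cells were plated 10-12 h before compound addition, then incubated 30-36 h at 37C. ONE-Glo luminescence was read; sodium butyrate at 4.5 mM final served as control.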
# Potency means the concentration at half of the fitted maximal effect; tags describe the fitted curve by direction and shape.
SMILES,Potency,"activity change, positive = activation"
CCCc1cc(=O)[nH]c(SCC(=O)N(Cc2ccccc2)C(C)C)n1,"inconclusive: 7.08 µM [activator, full curve, poor fit]",
COc1ccc(NC(=O)Nc2ccc(Br)cn2)cc1,,inconclusive: 41.3% [activator]
CCN1C(=O)/C(=C\C=C2/C=CC=CN2CC)SC1=S,active: 5.62 µM,
Cn1cccc1/C=C1\CCC/C(=C\c2cccn2C)C1=O,"inconclusive: 14.1 µM [activator, single point]",
COC(=O)c1ccc(CSc2ccc3nnc(-c4cccc(F)c4)n3n2)o1,"inconclusive: 20 µM [activator, single point]",
CCCCNC(=O)Cn1ncc2c(C)n(Cc3cccc(Cl)c3)c(C)c2c1=O,inactive,
COc1cc2oc(=O)c(CC(=O)NCCc3ccccc3F)c(C)c2cc1OC,inactive,
O=C(CN1C(=O)C(=O)N(Cc2ccco2)C1=O)NC1CCCCC1,inactive,
Nc1cccc(NC(=O)c2cccs2)c1,"inconclusive: 0.891 µM [activator, partial curve, poor fit]",
O=c1[nH]c(SCc2ccc(Cl)cc2)nc2ccsc12,"inconclusive: 11.2 µM [activator, partial curve]",
COc1cc(C(=O)OCCCN2CCCN(CCCOC(=O)c3cc(OC)c(OC)c(OC)c3)CC2)cc(OC)c1OC,"inconclusive: 5.62 µM [activator, partial curve, poor fit] and inconclusive: 17.8 µM [activator, partial curve, poor fit]",
COc1ccc(-c2c3c(nc4sc(C(=O)Nc5ccccc5F)c(N)c24)CC(C)(C)CC3=O)cc1,"inconclusive: 0.0112 µM [activator, full curve, poor fit]",
COCCNC(=O)NC(=O)COC(=O)Cc1ccc2c(c1)OCCO2,inactive,
Cc1ccc(NC(=O)c2ncc(Cl)c(Cl)c2Cl)cc1C,"inconclusive: 31.6 µM [activator, single point]",
COc1ccc(C2NC(=O)NC(C)=C2C(=O)OCc2ccc3c(c2)OCO3)cc1OC (stereo not drawn),inactive,
O=C(CNC(=O)C1COc2ccccc2O1)N/N=C/c1ccc(O)cc1O (stereo not drawn),inactive,
COC(=O)c1ccc2c(c1)NC1=C(C(=O)CC(C)(C)C1)C(c1ccncc1)N2 (stereo not drawn),"inconclusive: 35.5 µM [activator, single point]",
O=C(CCSCc1ccc(Cl)cc1)NCc1cccnc1,inactive,
O=C1Nc2ccccc2C12Nc1ccccc1S2 (stereo not drawn),"inconclusive: 0.794 µM [activator, full curve, poor fit]",
Nc1nonc1-c1nc2ccccc2n1CC(=O)N/N=C/c1ccc(-c2cccc(C(=O)O)c2)o1,inactive,
CCn1c(C(=O)NCc2ccc(OC)cc2)cc2sc(Cl)cc21,"inconclusive: 35.5 µM [activator, single point]",
C=CCOc1ccc(C(=O)Nc2ccc(OCC)cc2)cc1,"inconclusive: 12.6 µM [activator, partial curve]",
COc1cc2nc(C3CCC3)n(NC(=O)C3CCCC(OC)C3)c(=O)c2cc1OC (stereo not drawn),"inconclusive: 22.4 µM [activator, single point]",
O=C(Cn1ccsc1=NC(=O)C(F)(F)F)c1ccccc1,"inconclusive: 12.6 µM [activator, partial curve]",
CCCOc1ccc(C2=NNC(=O)CC2)cc1,,inconclusive: 48.7% [activator]

SMILES,Potency,"activity change, positive = activation"
CC(=O)C(/C=N/c1cc(-c2ccc(C)cc2)nn1-c1ccccc1)=C(\C)O,"inconclusive: 0.891 µM [activator, partial curve, poor fit]",
O=C1CC(N2CCN(Cc3ccc4c(c3)OCO4)CC2)C(=O)N1c1ccccc1 (stereo not drawn),"inconclusive: 3.16 µM [activator, single point]",
CCCn1nc(C(=O)Nc2ccc(S(=O)(=O)Nc3nccs3)cc2)c2ccccc2c1=O,active: 7.94 µM,
O=C(Nc1ccc(SC(F)F)cc1)C1=COCCO1,active: 11.2 µM,
Cn1cccc1CC(=O)N/N=C/C=C/c1ccccc1,"inconclusive: 8.91 µM [activator, partial curve, poor fit]",
CCc1nnc(NC(=O)c2ccc(COc3ccc(C)cc3)o2)s1,"inconclusive: 15.8 µM [activator, single point]",
CCNC(=S)NNC(=O)c1ccc(=O)n(Cc2ccccc2)c1,"inconclusive: 35.5 µM [activator, single point]",
Cn1c(N)c(C(=O)COC(=O)c2cc(C(F)(F)F)nc3ccccc23)c(=O)n(Cc2ccccc2)c1=O,"inconclusive: 5.62 µM [activator, single point]",
COC(=O)C1=C(C)NC(=O)/C1=C\c1cc(C)n(-c2cccc(C)c2)c1C,inactive,
Nc1nc(CSc2nnnn2-c2ccccc2)nc(N2CCCc3ccccc32)n1,inactive,
Cc1cccc([N+](=O)[O-])c1C,"inconclusive: 12.6 µM [activator, partial curve, poor fit]",
Cc1ccc(Nc2cc(C)nc(-c3ccccc3O)n2)cc1,inactive,
O=C(NCc1ccccc1)c1cc(-c2ccco2)on1,"inconclusive: 12.6 µM [activator, partial curve]",
Cc1ccc(NC(=O)Cn2cc(C(=O)c3cccs3)c3ccccc32)cc1C,"inconclusive: 5.62 µM [activator, single point]",
CN(C)c1ccc(C(=O)Nc2nc3c(s2)CCCC3)cc1,active: 0.631 µM,
Cc1ccc(C)n1-c1ccc(C(=O)NCC2CCCO2)cc1 (stereo not drawn),"inconclusive: 14.1 µM [activator, single point]",
CCc1ccc(-c2ccc(C(=O)O)c(C)n2)cc1,"inconclusive: 10 µM [activator, partial curve, poor fit]",
COc1cc(-c2nc3cccc(C)n3c2Nc2ccc3c(c2)OCCO3)ccc1O,inactive,
CCOC(=O)c1ccc(NC(=O)CNC(=O)c2ccccc2)cc1,inactive,
CN1c2cc3c(cc2N=C(c2ccc(C(=O)O)cc2)c2ccccc21)C(C)(C)CCC3(C)C,inactive,
Cc1cc(N)n(-c2ccc3ccccc3c2)n1,"inconclusive: 15.8 µM [activator, single point]",
Cc1ccc(-c2nc3ccccc3[nH]2)cc1N,active: 3.16 µM,
CC(C)NC(=O)CN1CCN(c2ncccn2)CC1,"inconclusive: 35.5 µM [activator, single point]",
O=C(CNC(=O)c1ccc(S(=O)(=O)N2CCCC2)cc1)N/N=C/c1ccc(Cl)cc1,"inconclusive: 3.98 µM [activator, single point]",
COCCN(C(=O)Cc1cccs1)C(C(=O)NCc1ccc(OC)cc1)c1ccc(C)cc1 (stereo not drawn),"inconclusive: 35.5 µM [activator, partial curve, poor fit]",

SMILES,Potency,"activity change, positive = activation"
CCOC(=O)c1ccccc1NC(=O)c1cccs1,inactive,
O=c1c(-c2ccc(O)cc2)coc2c(C3OC(CO)C(O)C(O)C3O)c(O)ccc12 (stereo not drawn),inactive,
C=CCn1c(N)c(C(=O)Nc2ccccc2)c2nc3ccccc3nc21,"inconclusive: 5.62 µM [activator, partial curve, poor fit]",
CN(C)c1ccc(-c2nc(Nc3ccncc3)c3ccccc3n2)cc1,active: 11.2 µM,
O=C(O)c1cc(/C=C/c2ccc(N3CCOCC3)cc2)nc2ccccc12,"inconclusive: 22.4 µM [activator, single point]",
CCNc1ncc2nc(-c3cccc(C#N)c3)c(=O)n(C)c2n1,"inconclusive: 1.58 µM [activator, partial curve]",
COc1ccc(/C=N/N(C)c2cc(=O)n(C)c(=O)[nH]2)cc1OC,inactive,
CCCCCC(=O)/C=C/[C@H]1[C@H](O)CC(=O)[C@@H]1C/C=C\CCCC(=O)O,inactive,
O=c1cc(-c2ccc(O)cc2)oc2ccccc12,"inconclusive: 12.6 µM [activator, partial curve]",
Cc1ccc2c(c1)CC1(CN2C)C(=O)OC(C)(C)OC1=O,"inconclusive: 0.0032 µM [activator, full curve, poor fit]",
NC(=O)C1CCN(Cc2nc3cc(Cl)ccc3c(=O)[nH]2)CC1,"inconclusive: 6.31 µM [activator, full curve, poor fit]",
Fc1ccc(Nc2c(-c3c[nH]c4ccccc34)nc3ccccn23)cc1,"inconclusive: 12.6 µM [activator, partial curve]",
COC(=O)c1sc(NC(=O)c2csc3c2CCCC3)nc1C,active: 2.51 µM,
O=C(Cc1cccs1)Nc1ccc(N2CCOCC2)cc1,"inconclusive: 15.8 µM [activator, single point]",
CCS(=O)(=O)Nc1cccc(-c2nc3cccnc3s2)c1C,inactive,
CCCCOC(=O)c1ccc(NC(=O)c2cc(=O)c3ccccc3o2)cc1,inactive,
CCOc1ccc(NC(=O)c2ncn(-c3ccccc3)n2)cc1,,inconclusive: 39% [activator]
CCOCCCNC(=O)c1ccc2c(c1)ncn2C1CCCC1,"inconclusive: 10 µM [activator, partial curve]",
CCOc1ccc(CCNC(=O)c2cn(C)c3ccc(S(=O)(=O)N4CCCCCC4)cc3c2=O)cc1OCC,inactive,
CCc1ccc(NC(=O)c2sc3nc(C)c(Cl)c(C)c3c2NC(=O)c2ccccc2OC)cc1,inactive,
Cc1ccc(C(=O)O)cc1S(=O)(=O)N1CCCC1,"inconclusive: 3.55 µM [activator, single point]",
N#CCCN/N=C(/Cc1nc2ccccc2[nH]1)c1cccc(Cl)c1,active: 0.562 µM,
OC(COc1cccc(OCC(O)CN2CCOCC2)c1)CN1CCOCC1 (stereo not drawn),"inconclusive: 0.0141 µM [activator, full curve, poor fit]",
